{
  "source": "PubChem BioAssay AID652106",
  "about": "(National Center for Advancing Translational Sciences (NCATS), 2013)",
  "note": "Out of some 370,000 compounds screened, about 500 (0.14%) were called active. Inconclusive results, whose numbers are uncertain, are shown with a selection of clear calls. Calls come from the whole dose curve; as a rule, active = well fitted activation curve with a large enough effect; inconclusive = small, poorly fitted or top-dose-only effect; inactive = no such curve, though single readings can be large or run the other way. No potency is given beside an inconclusive call; the fits are too rough. Potency is the fitted concentration of half-maximal effect; tags give direction and shape of the fitted curve.",
  "data": [
    {"assay": "qHTS of alpha-syn Inhibitors; note: nearly all actives have a fitted effect of over 65% in size", "details": "Yeast expressing alpha-synuclein, BacTiter-Glo, 24 h; Potency: growth rescue unless noted; series mostly up to 46.1 µM", "in_short": "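Screening used galactose-induced yeast with toxic alpha-synuclein levels, exposed to compound for 24 hr at 30 deg C. Cell growth, read with BacTiter-Glo luminescence, gave the measured signal.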", "values": [
      {"smiles": "COc1cc2c(cc1OC)C(COc1ccc(F)cc1)N(C(=O)c1ccccc1F)CC2", "note": "(stereo unspecified)", "Potency": "inconclusive [activator, single point]"},
      {"smiles": "O=c1c2[nH]c3ccc(Br)cc3c2ncn1CCCn1ccnc1", "Potency": "inconclusive [activator, single point]"},
      {"smiles": "COc1ccc(OC)c(/C=C(\\C)C(=O)c2c(C)cc(C)[nH]c2=O)c1", "Potency": "inactive"},
      {"smiles": "CCOCCCNC(=O)CN1C(=O)c2ccccc2Sc2ncccc21", "Potency": "inconclusive [activator, single point]"},
      {"smiles": "CCCCCCNC(=O)CNC(=S)N(Cc1cccs1)C1CCCCC1", "Potency": "inconclusive [activator, single point]"},
      {"smiles": "CCC(=O)Nc1ccc(N2CCCCC2)c(C(=O)Nc2ccccc2C)c1", "Potency": "inconclusive [activator, single point]"},
      {"smiles": "O=C(N/N=C/c1cc(Br)ccc1O)c1ccccc1Cl", "Potency": "active: 10 µM"},
      {"smiles": "CCOC(=O)c1c(/N=C/c2cccc([N+](=O)[O-])c2O)sc2c1CCC2", "Potency": "inconclusive [activator, single point]"},
      {"smiles": "COc1ccc(-c2[nH]c(-c3ccc(F)cc3)nc2SCC(=O)NCc2ccco2)cc1OC", "Potency": "inconclusive [activator, single point]"},
      {"smiles": "O=C(c1ccc(Cl)c(Cl)c1)N1CCC(=O)N([C@H](COCc2ccc(Cl)cc2)Cc2ccccc2)CC1", "Potency": "inconclusive [activator, single point]"},
      {"smiles": "O=C(Nc1nnc(-c2ccc3c(c2)CCCC3)o1)c1ccccc1Cl", "Potency": "inconclusive [activator, single point]"},
      {"smiles": "O=C(C[n+]1cccc(Br)c1)c1ccc2c(c1)CCCC2", "Potency": "inactive"},
      {"smiles": "COc1ccc(-c2nnc(SCc3c(C)noc3C)n2N)cc1OC", "Potency": "inconclusive [activator, single point]"},
      {"smiles": "O=C1NC2(CCCCCC2)C(=O)N1Cc1cccc(Cl)c1", "Potency": "inconclusive [activator, single point]"},
      {"smiles": "O=[N+]([O-])c1ccc(NCCCc2ccccc2)cc1", "Potency": "inactive"},
      {"smiles": "O[C@H]1C[C@H](c2ccc(Cl)cc2)N(CC2CCCCC2)C[C@@H]1n1cc(-c2ccc(F)cc2)nn1", "Potency": "inconclusive [activator, single point]"},
      {"smiles": "CCN(CC)CCN1CCN(c2cncc(-c3cccc(N)c3)n2)CC1", "Potency": "inconclusive [activator, single point]"},
      {"smiles": "Cc1c(CCC(=O)NCCC(=O)O)c(=O)oc2cc3occ(-c4ccccc4)c3cc12", "Potency": "inconclusive [activator, single point]"},
      {"smiles": "COc1ccc(-c2nc(CS(=O)CC(=O)NC3CCCc4ccccc43)c(C)o2)cc1OC", "note": "(stereo unspecified)", "Potency": "inconclusive [activator, single point]"},
      {"smiles": "Cc1ccc(Nc2nc(N)c([N+](=O)[O-])c(N3CCOCC3)n2)cc1C", "Potency": "inactive"},
      {"smiles": "COc1cc(N(C)C)c(OC)cc1C=C1C=CC=C1", "Potency": "inactive"},
      {"smiles": "Cc1nn(C)c2ncc(C(=O)c3ccccc3O)cc12", "Potency": "inactive"},
      {"smiles": "CCOC(=O)CCC(NC(=O)c1ccc(NCN2C(=O)c3ccccc3C2=O)cc1)C(=O)OCC", "note": "(stereo unspecified)", "Potency": "inconclusive [activator, single point]"},
      {"smiles": "COc1ccc(OC)c(CNc2ccc([N+](=O)[O-])cc2C)c1", "Potency": "inactive"},
      {"smiles": "N#C/C(=C\\c1ccc(O)c(O)c1)C(=O)c1ccc(O)c(O)c1", "Potency": "inactive"},
      {"smiles": "CCC1(C(=O)OC)CCc2c(cc(OC)c3ccccc23)C1=O", "note": "(stereo unspecified)", "Potency": "inconclusive [activator, single point]"},
      {"smiles": "CCOc1ccc2oc(C(=O)OCC(=O)NCc3ccc(OC)cc3)c(C)c2c1", "Potency": "inconclusive [activator, single point]"},
      {"smiles": "CNc1ccc(/C=C2\\C=Cc3ccccc32)cc1I", "Potency": "inactive"},
      {"smiles": "C=C(C)CN(CC)c1ccc(N2C(=O)CCCC2=O)cc1[N+](=O)[O-]", "Potency": "inconclusive [activator, single point]"},
      {"smiles": "N=C1C=CC(=C(c2ccc(N)cc2)c2ccc(N)cc2)C=C1", "Potency": "inactive"},
      {"smiles": "CN(C)c1ccc(C(=O)C(=O)N2CCN(c3ccccc3)CC2)cc1", "Potency": "inactive"},
      {"smiles": "Cc1cccc(N2CCN(C(=O)COc3ccc4ccc(=O)oc4c3)CC2)c1C", "Potency": "inactive"},
      {"smiles": "COc1cc(OC)c(NC(=O)CCc2nc(-c3cccs3)no2)cc1Cl", "Potency": "inactive"},
      {"smiles": "Cc1cccc(N2CCN(c3ncnc4onc(C)c34)CC2)c1C", "Potency": "inconclusive [activator, single point]"},
      {"smiles": "Cc1c(Br)cccc1NC(=O)c1sccc1-n1cccc1", "Potency": "inactive"},
      {"smiles": "CCOc1ccc2nc(NCCNC(=O)CC)c(C#N)cc2c1", "Potency": "inconclusive [activator, single point]"},
      {"smiles": "Cc1cn([C@H]2C[C@H](O)[C@@H](/C=C/C(=O)NCc3ccccc3)O2)c(=O)[nH]c1=O", "Potency": "inconclusive [activator, single point]"},
      {"smiles": "O=S(=O)(N/N=C\\c1ccc(-c2ccccc2Cl)o1)c1ccccc1", "Potency": "inconclusive [activator, single point]"},
      {"smiles": "CCOc1ccccc1OCCCC(=O)N1CCN(S(=O)(=O)c2ccc(C)cc2C)CC1", "Potency": "inconclusive [activator, single point]"},
      {"smiles": "Cc1nonc1NC(=O)CSc1nc(C2CCCCC2)nc2ccccc12", "Potency": "inconclusive [activator, single point]"},
      {"smiles": "COc1cccc(CCn2c(N)cc(=O)[nH]c2=S)c1OC", "Potency": "inactive"},
      {"smiles": "OC(COc1ccc(Cl)cc1)CN1CCN(c2ccccc2)CC1", "note": "(stereo unspecified)", "Potency": "inactive"},
      {"smiles": "CC(=O)c1ccc(N2CCN(CC(=O)NC(=O)NCc3ccccc3)CC2)cc1", "Potency": "inconclusive [activator, single point]"},
      {"smiles": "CCc1ccc(NC(=O)CSc2nnc(Cc3cccn3C)n2-c2ccc(F)cc2)cc1", "Potency": "inconclusive [activator, single point]"},
      {"smiles": "O=C(CC1(O)C(=O)N(CCc2ccccc2)c2ccccc21)c1ccco1", "note": "(stereo unspecified)", "Potency": "inconclusive [activator, single point]"},
      {"smiles": "COc1ccc(-c2cc(NC(C)=O)c3ncc(-c4ccc(OC)c(OC)c4)n3c2)c(OC)c1", "Potency": "inconclusive [activator, single point]"},
      {"smiles": "CCCCOC(=O)/C=C\\C(=O)OCCCC", "Potency": "inconclusive [activator, single point]"},
      {"smiles": "O=C1NN=C(c2ccccc2)CC1c1c[nH]c2ccccc12", "note": "(stereo unspecified)", "Potency": "inconclusive [activator, single point]"},
      {"smiles": "CN(CC1CCCO1)S(=O)(=O)c1ccc(C(=O)Nc2nc(-c3ccccn3)cs2)cc1", "note": "(stereo unspecified)", "Potency": "inconclusive [activator, single point]"},
      {"smiles": "O=C(Nc1ccc2c(c1)OCO2)C1Cc2c(-c3ccc(Cl)cc3)ccnc2O1", "note": "(stereo unspecified)", "Potency": "inconclusive [activator, single point]"},
      {"smiles": "COc1ccc(C2=CC(=O)C[C@H](c3ccc(F)cc3)C2)cc1OC", "Potency": "inactive"},
      {"smiles": "CCOC(=O)c1c(-c2cccc([N+](=O)[O-])c2)cn2ccccc12", "Potency": "inactive"},
      {"smiles": "Cc1ccc(S(=O)(=O)NCC(=O)NCC(=O)OCC(=O)N2CC(=O)Nc3ccccc32)cc1C", "Potency": "inconclusive [activator, single point]"},
      {"smiles": "O=c1c2cc(Cl)ccc2nc(-c2ccccc2)n1O", "Potency": "inconclusive [activator, single point]"},
      {"smiles": "COc1ccc(C2(C(=O)NCCc3ccccc3)CCCC2)cc1", "Potency": "inactive"},
      {"smiles": "CCCC(C)c1nnc(NC(=O)C2CC(=O)N(CCc3ccc(F)cc3)C2)s1", "note": "(stereo unspecified)", "Potency": "inconclusive [activator, single point]"},
      {"smiles": "CCc1nc2ccccc2c(C(=O)OCCN2C(=O)c3ccccc3C2=O)c1C", "Potency": "inconclusive [activator, single point]"},
      {"smiles": "COc1cc2c(NC3CCN(C)CC3)nc(N3CCCN(C)CC3)nc2cc1OCCOCCN1CCCC1", "Potency": "inconclusive [activator, single point]"},
      {"smiles": "S=C(Nc1ccccc1)N1N=C(c2cccs2)CC1c1cccs1", "note": "(stereo unspecified)", "Potency": "inconclusive [activator, single point]"},
      {"smiles": "C/C(=N\\N=C1\\NC(=O)C(Cc2ccccc2)S1)c1ccccc1", "note": "(stereo unspecified)", "Potency": "inconclusive [activator, single point]"},
      {"smiles": "Cc1ccc(S(=O)(=O)N2CC3C(=O)C[C@@H](c4ccccc4)N(S(=O)(=O)c4ccccc4Cl)C3CC2c2ccccc2)cc1", "note": "(stereo partly specified)", "Potency": "inconclusive [activator, single point]"},
      {"smiles": "Cc1ccc2nc(NNC(=O)c3ccc(S(=O)(=O)N4CCc5ccccc5C4)cc3)sc2c1", "Potency": "inconclusive [activator, single point]"},
      {"smiles": "COc1cccc(Oc2cncnc2-c2ccc(OC)cc2O)c1", "Potency": "inconclusive [activator, partial curve]"},
      {"smiles": "CC1CCN(CCCNS(=O)(=O)c2cc(Br)cc3c2N(C(=O)C2CC2)CC3)CC1", "Potency": "inactive"},
      {"smiles": "CCOC(=O)C1=C(COC(=O)c2ccc3ccccc3c2O)NC(=O)NC1C", "note": "(stereo unspecified)", "Potency": "inconclusive [activator, partial curve]"},
      {"smiles": "CC1(C)OC(=O)C2(Cc3cc([N+](=O)[O-])ccc3N3CCCCC32)C(=O)O1", "note": "(stereo unspecified)", "Potency": "inactive"},
      {"smiles": "Cc1ccccc1S(=O)(=O)Nc1nc2ccccc2nc1Cl", "Potency": "inactive"},
      {"smiles": "Cn1c(=O)c2[nH]c(C3CCCC3)nc2n(C)c1=O", "Potency": "inconclusive [activator, single point]"},
      {"smiles": "COC(=O)N1C(=O)[C@@](c2ccccc2)(C(C)C)N1C(=O)OC", "Potency": "inactive"},
      {"smiles": "CCN(CC)C(=S)SCC(=O)c1ccc(Br)cc1", "Potency": "inactive"},
      {"smiles": "Oc1ccc(O)c(C=NNC(=S)NC2CC3CC2C2C=CCC32)c1", "note": "(stereo unspecified)", "Potency": "inconclusive [activator, single point]"}
    ]}
  ]
}
